In all, about 220,000 compounds went through this assay and about 16,000 (7.3%) were called active. The shares of active, inactive and inconclusive entries below differ from those in the screen. Calls come from the whole dose curve; as a rule, active = well fitted inhibition curve with a large enough effect (not every such curve was filed as active); inconclusive = small, poorly fitted or top-dose-only effect, or another doubt; inactive = no such curve, though single readings can be large or run the other way. Potencies of inconclusive entries are left out as doubtful fits.
target: Aldehyde dehydrogenase 1A1 (Homo sapiens) (UniProt P00352); test: qHTS Assay for Inhibitors of Aldehyde Dehydrogenase 1 (ALDH1A1); conditions: Purified ALDH1A1, NADH fluorescence, propionaldehyde substrate; series mostly up to 75.3 µM; activity, negative = inhibition: at the top concentration;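 for activity, negative = inhibition: plate controls were no enzyme wells and a reference inhibitor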
Potency is the fitted concentration of half-maximal effect; tags give direction and shape of the fitted curve.

Chain of UniProt P00352 (P00352 whole entry, looked up): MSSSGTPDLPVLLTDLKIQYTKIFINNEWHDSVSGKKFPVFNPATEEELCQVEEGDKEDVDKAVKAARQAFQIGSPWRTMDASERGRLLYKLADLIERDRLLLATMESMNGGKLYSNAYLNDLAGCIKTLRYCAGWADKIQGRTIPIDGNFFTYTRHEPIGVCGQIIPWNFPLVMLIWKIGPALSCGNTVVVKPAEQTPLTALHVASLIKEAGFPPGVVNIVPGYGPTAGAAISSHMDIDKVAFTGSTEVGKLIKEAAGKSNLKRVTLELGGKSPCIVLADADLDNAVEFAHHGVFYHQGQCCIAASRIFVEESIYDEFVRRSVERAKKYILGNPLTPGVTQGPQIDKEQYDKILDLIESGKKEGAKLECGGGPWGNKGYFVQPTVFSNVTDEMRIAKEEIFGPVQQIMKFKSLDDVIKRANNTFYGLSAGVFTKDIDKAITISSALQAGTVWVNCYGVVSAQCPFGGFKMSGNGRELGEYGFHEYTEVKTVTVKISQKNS

Question: For CC(C)C(=O)NNC(=O)CSc1nnnn1C(C)C, which “activity, negative = inhibition” value is on record?
Answer: inactive: 6.24%

Question: O=c1c(CCc2ccccc2)nc2cnc(N3CCOCC3)nc2n1C[C@H]1CCCO1 was tested. Which Potency did it give?
Answer: inconclusive [inhibitor, partial curve]

Question: With CC1CN(CC(O)COC(c2ccccc2)c2ccccc2)CC(C)O1 (stereo not given) as the molecule, how does the Potency read?
Answer: active: 25.1 µM

Question: How did the Potency turn out when Cc1cc(C)n2nc(C(=O)NCc3ccccc3)cc2n1 was run?
Answer: inconclusive [inhibitor, partial curve]

Question: COc1cc2c(cc1NC(=O)c1cccc([N+](=O)[O-])c1)oc1ccccc12 was tested. Which “activity, negative = inhibition” value did it give?
Answer: inactive: 3.4%

Question: With Oc1c(Cl)cc(Cl)cc1C=Nc1ccc(Br)cc1 as the molecule, how does the “activity, negative = inhibition” value read?
Answer: inactive: 35.8%

Question: How did the Potency turn out when COc1cc(/C=C2/C(=O)c3cccc([N+](=O)[O-])c3C2=O)c(Br)cc1O was run?
Answer: active: 8.91 µM

Question: With CC(C)CCNc1nc(-c2ccco2)c2c(c1C#N)CCCC2 as the molecule, how does the Potency read?
Answer: inconclusive [inhibitor, partial curve]

Question: How did the Potency turn out when COC(=O)c1ccccc1N/C=C1\CCc2c(c(C)nn2-c2ccccn2)C1=O was run?
Answer: inconclusive [inhibitor, partial curve]

Question: With CCOC(=O)N1CCN(C(=O)CCSCCc2ccncc2)CC1 as the molecule, how does the Potency read?
Answer: inconclusive [inhibitor, partial curve, poor fit]

Question: With COCCCn1c(=O)/c(=C\c2ccccc2OC(F)F)s/c1=C(/C#N)C(=O)NC(C)C as the molecule, how does the Potency read?
Answer: inconclusive [inhibitor, single point]

Question: For COc1ccc(N(CC(=O)NCCSCc2ccco2)S(=O)(=O)c2ccccc2)cc1, which Potency is on record?
Answer: inconclusive [inhibitor, single point]

Question: Which Potency does the source give for CN1CC=C2C(C#N)=C(N)C(C#N)(C#N)C(CCc3ccccc3)C2C1 (stereo not given) here?
Answer: inconclusive [inhibitor, partial curve]

Question: For N#C/C(=C/c1ccc(Sc2nc3ccccc3[nH]2)o1)c1cccc(F)c1, which Potency is on record?
Answer: inconclusive [inhibitor, partial curve]

Question: With CCCNS(=O)(=O)c1ccc(CCC(=O)NCCc2ccc(OC)c(OC)c2)cc1 as the molecule, how does the Potency read?
Answer: inconclusive [inhibitor, single point]

Question: COc1ccc(N(CC(=O)NCCSC2CCCCC2)S(C)(=O)=O)c(OC)c1 was tested. Which Potency did it give?
Answer: active: 14.1 µM

Question: O=C(CSc1nc(N2CCCCC2)nc(N2CCCCC2)n1)Nc1nccs1 was tested. Which “activity, negative = inhibition” value did it give?
Answer: inactive: 16.5%

Question: Cc1nc(SCC(=O)c2cc3ccccc3oc2=O)c(C#N)c(C)c1C(=O)Nc1ccccc1 was tested. Which Potency did it give?
Answer: inconclusive [inhibitor, single point]

Question: With O=C(Cn1cnc2ccccc2c1=O)c1ccc2ccccc2c1 as the molecule, how does the Potency read?
Answer: inconclusive [inhibitor, single point]

Question: With O=C(CCC1CCCN(C(=O)c2ccoc2)C1)NCc1ccc(F)c(F)c1 (stereo not given) as the molecule, how does the Potency read?
Answer: inconclusive [inhibitor, single point]

Question: With CCCc1cc(=O)oc2c(CN3CCCC3)c(O)ccc12 as the molecule, how does the Potency read?
Answer: inconclusive [inhibitor, partial curve]

Question: With O=C(Cn1cncn1)NCc1ccc(Cl)cc1 as the molecule, how does the “activity, negative = inhibition” value read?
Answer: inactive: -3.4%

Question: CN(C)S(=O)(=O)c1cc([N+](=O)[O-])ccc1N1CCCCCC1 was tested. Which Potency did it give?
Answer: inconclusive [inhibitor, single point]

Question: For N#Cc1c(NC(=O)CSc2n[nH]c(Cc3ccccc3)n2)oc(-c2ccccc2)c1-c1ccccc1, which Potency is on record?
Answer: inconclusive [inhibitor, single point]

Question: For N#C/C(=C\c1cccc([N+](=O)[O-])c1)C(=O)NCc1cccnc1, which “activity, negative = inhibition” value is on record?
Answer: inactive: -5.34%

Question: CS(=O)(=O)N1CCC2(CCN(c3ccccn3)CC2)CC1 was tested. Which Potency did it give?
Answer: inconclusive [inhibitor, single point]

Question: For COc1ccccc1N1CCN(C(=O)c2ccc(N3CCCC3=O)cc2)CC1, which “activity, negative = inhibition” value is on record?
Answer: inactive: -6.82%

Question: With COC(=O)c1[nH]c2ccc(C)cc2c1NC(=O)Nc1ccccc1OC as the molecule, how does the Potency read?
Answer: inconclusive [inhibitor, partial curve]

Question: Which Potency does the source give for CCc1cc(=O)oc2cc(OCC(=O)N(CC)CC)c(Cl)cc12 here?
Answer: inconclusive [inhibitor, partial curve]

Question: COc1ccc(OCC(O)Cn2c(Nc3cccc(C)c3)nc3c2c(=O)n(C)c(=O)n3C)cc1 (stereo not given) was tested. Which Potency did it give?
Answer: inconclusive [inhibitor, partial curve]

Question: For Cn1c(Oc2ccc(F)cc2)c(C=O)c2ccccc21, which “activity, negative = inhibition” value is on record?
Answer: inactive: 2.11%

Question: How did the Potency turn out when CCCCn1c(SCc2cc(=O)n3ccsc3n2)nc2cc(C(=O)OC)ccc2c1=O was run?
Answer: inconclusive [inhibitor, full curve, poor fit]

Question: For CCOC(=O)C(Cc1ccccc1)C(=O)Nc1cccc(C)c1 (stereo not given), which Potency is on record?
Answer: inconclusive [inhibitor, single point]

Question: For O=C(c1cccnc1)N1N=C2CCCCCC2C1(O)C(F)(F)F (stereo not given), which Potency is on record?
Answer: inconclusive [inhibitor, partial curve]

Question: COc1ccc(NS(=O)(=O)c2ccc(NC(=S)NC(=O)c3cccc(F)c3)cc2)nn1 was tested. Which Potency did it give?
Answer: inconclusive [inhibitor, single point]

Question: For CC(=O)c1cc2c(cc1NC(=O)C1CCC1)OCO2, which Potency is on record?
Answer: inconclusive [inhibitor, single point]

Question: Which Potency does the source give for CCc1nc(Nc2ccc3c(c2)OCO3)c2oc3ccccc3c2n1 here?
Answer: inconclusive [inhibitor, single point]

Question: Which Potency does the source give for c1ccc2c(c1)ncn2Cc1nnc2sc(-c3ccncc3)nn12 here?
Answer: active: 10 µM

Question: Which Potency does the source give for O=C(O)Cc1cc2ccccc2nc1C(=O)O here?
Answer: inconclusive [inhibitor, single point]

Question: With CCc1nnc(NC(=O)CSc2nnc(C3CCCCC3)n2-c2cccc(Cl)c2)s1 as the molecule, how does the “activity, negative = inhibition” value read?
Answer: inactive: 0.508%

Question: For CC(C)CN1CCNC(=O)C1CC(=O)NCCCN1CCCc2ccccc21 (stereo not given), which “activity, negative = inhibition” value is on record?
Answer: inactive: -15.1%

Question: COc1ccc(C)cc1S(=O)(=O)N(C)CC(=O)Nc1ccccc1 was tested. Which Potency did it give?
Answer: inconclusive [inhibitor, single point]

Question: CCOc1ccc(OC(=O)C(CCS(C)(=O)=O)N2C(=O)c3ccccc3C2=O)cc1 (stereo not given) was tested. Which Potency did it give?
Answer: inconclusive [inhibitor, single point]

Question: How did the Potency turn out when COc1ccc(N2Cc3cccc(C(=O)NC(C)CCc4ccco4)c3C2=O)cc1 (stereo not given) was run?
Answer: active: 25.1 µM

Question: Which “activity, negative = inhibition” value does the source give for Nc1cc(=O)[nH]c(SCC(=O)Nc2cccc(Cl)c2Cl)n1 here?
Answer: inactive: -2.99%
